# From PubChem BioAssay AID1466 (National Center for Advancing Translational Sciences (NCATS), 2008)
# Out of some 200,000 compounds screened, about 10 (0.005%) were called active. This list was built around the results that the source calls inconclusive (neither active nor inactive); the mix of calls is not that of the screen. Calls follow the shape of the dose curve; as a rule, active = well fitted inhibition curve with a large enough effect; inconclusive = small, poorly fitted or top-dose-only effect, or effect the other way, or another doubt; inactive = no such curve, though single readings can be large or run the other way. No potency is given beside an inconclusive call; the fits are too rough.
# Target: Lysosomal alpha-glucosidase (Homo sapiens) (UniProt P10253)
# Experiment: qHTS Assay for Inhibitors of Human alpha-Glucosidase as a Potential Chaperone Treatment of Pompe Disease;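 as to activity change, negative = inhibition: plate controls were uninhibited enzyme wells for no effect and no-enzyme background for full effect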
# Settings: purified human GAA, 4-MU-alpha-glucoside fluorescence; activity change, negative = inhibition: at 76.9 µM (top of the series) unless noted
# Outline: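 Fluorogenic assay: 4 nM human alpha-glucosidase with 400 uM 4-methylumbelliferyl-alpha-D-pyranoside in 50 mM citrate/phosphate, 0.005% Tween-20, pH 5.0, 20 min at room temperature. Compounds tested up to 77 uM; AC50 from Hill fits.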
# Potency is read from the fitted curve at half-maximal effect; tags tell the direction and shape of the fitted curve.
Compound,Potency,"activity change, negative = inhibition"
CCN1CCN(CC(=O)NC2CCCC2)C(=O)C1=O,"inconclusive [inhibitor, single point]",–
Cc1nn(CCC(=O)NNC(=S)Nc2ccc(F)cc2)c(C)c1Br,"inconclusive [inhibitor, single point]",–
C=CCn1c(CCCOc2ccc(Cl)cc2Cl)nnc1SCC(=O)Nc1nccs1,–,inconclusive: -15.3% [inhibitor]
CN(C)C=NC(=O)c1cc(C(=O)c2ccc(C(C)(C)C)cc2)c[nH]1,"inconclusive [inhibitor, single point]",–
CC(C)CCN1CCN(Cc2ccc(C(F)(F)F)cc2)CC1CCO (stereo unspecified),inactive,–
CC(/C=C/C=C/c1ccccc1)=N\NC(=O)c1cccnc1,"inconclusive [inhibitor, single point]",–
Cc1ccc(S(=O)(=O)Oc2ccc(C3C4=C(CCCC4=O)N(CCC(=O)O)C4=C3C(=O)CCC4)cc2Cl)cc1,"inconclusive [activator, partial curve]",–
O=C(Nc1cccc(C(F)(F)F)c1)c1cc2c(s1)-c1ccccc1OC2,"inconclusive [activator, partial curve]",–
CC(C)n1c(/C=C/c2ccccc2)nc2ccccc21,"inconclusive [activator, single point]",–
Nc1[nH]c(=O)[nH]c(=O)c1N=Nc1cccc(Cl)c1,–,inconclusive: -21.8% [inhibitor]
Cc1ccc(C(CCN(Cc2ccccc2)C(=O)c2ccco2)c2ccco2)cc1 (stereo unspecified),"inconclusive [inhibitor, single point]",–
COc1ccc(NC(=S)N2CCCN(Cc3cc(C)ccc3C)C2)cc1,"inconclusive [inhibitor, single point]",–
N#Cc1ccc(S(=O)(=O)N2CCN(c3ncccn3)CC2)cc1,"inconclusive [inhibitor, full curve, poor fit]",–
O=C(Nc1ccc2nc(-c3cccs3)c(-c3cccs3)nc2c1)N1CCOCC1,"inconclusive [inhibitor, partial curve, poor fit]",–
Cc1cc(C)cc(NC(=O)CSc2nncn2-c2ccccn2)c1,–,inconclusive: 12.7% [activator]
CCCNC(=O)NC(=O)COC(=O)c1ccc(OC)c(S(=O)(=O)N2CCCc3ccccc32)c1,"inconclusive [inhibitor, single point]",–
CCOC(=O)COc1c(-c2ccc(OC)cc2)oc2ccccc2c1=O,"inconclusive [activator, single point]",–
CC(C)C1Nc2c(O)cc(Cl)c([N+](=O)[O-])c2C2C=CCC21 (stereo unspecified),inactive,–
O=C(c1ccc(S(=O)(=O)N2CCOCC2)cc1)N1CCCc2ccccc21,"inconclusive [inhibitor, single point]",–
S=C(Nc1ccc2cn[nH]c2c1)Nc1ccc(Cl)cc1Cl,–,inconclusive: 15.4% [activator]
Cc1cc(NC(=O)Cc2ccccc2)ccc1NC(=O)c1cccs1,–,inconclusive: 11.6% [activator]

Compound,Potency,"activity change, negative = inhibition"
CCOc1ccc(C(C)=O)cc1CSC(=N)N,–,inconclusive: 16.3% [activator]
Nc1nc(N2CCOCC2)nc2ccccc12,"inconclusive [activator, single point]",–
COc1cc(N/C(N)=N/c2nc(C)cc(C)n2)c(OC)cc1Cl,–,inconclusive: 16.1% [activator]
CCN(CC)CCCNc1nc2cc(OC)c(OC)cc2c2nc(-c3ccccc3)nn12,"inconclusive [inhibitor, partial curve]",–
O=S(=O)(c1ccc(F)cc1)N1CCN(Cc2ccccc2C(F)(F)F)CC1,–,inconclusive: -15.8% [inhibitor]
Cc1ccc(/C=N/NC(=O)CSc2nc3ccccc3c(=O)n2-c2ccccc2C)s1,"inconclusive [inhibitor, partial curve]",–
Cc1ccc(NC(=O)CCn2nnc3ccccc32)c(C)c1,"inconclusive [activator, full curve]",–
Cc1onc(-c2ccccc2)c1C(=O)Nc1nnc(COc2ccc(Cl)cc2)s1,"inconclusive [inhibitor, partial curve]",–
CCOC(=O)CCCn1c(C)nc(=O)c(-c2ccccc2)c1C,"inconclusive [inhibitor, partial curve, poor fit]",–
CCCCC[n+]1cccc2c3ccccc3ccc21,"inconclusive [activator, partial curve]",–
CC(C)(C)Cc1nc(-c2ccccn2)no1,–,inconclusive: 18.4% [activator]
Cc1c(Br)c([N+](=O)[O-])nn1CC(=O)Nc1sc2c(c1C(=O)OC(C)C)CCC(C)C2 (stereo unspecified),"inconclusive [inhibitor, partial curve]",–
CCOC(=O)c1cc(C#N)c(N2CCOCC2)nc1-c1ccccc1,–,inconclusive: -16% [inhibitor]
CCn1c(NC(=O)Nc2cccc(C)c2C)cc2sccc21,"inconclusive [inhibitor, single point]",–
Cc1ccc(NS(=O)(=O)c2ccc(CCC(=O)NCCCOC(C)C)cc2)cc1,"inconclusive [inhibitor, partial curve, poor fit]",–
COCc1cc(C)[nH]c(=O)c1C(=O)NC12CC3CC(CC(C3)C1)C2,"inconclusive [inhibitor, full curve, poor fit]",–
CC1=NNC(=O)/C1=C\c1cn(-c2ccccc2)nc1-c1ccccc1,"inconclusive [activator, full curve, poor fit]",–
CC1(C)CC(=O)C2=C(C1)NC(SCC(=O)Nc1ccccc1)=C(C#N)C21CCCCC1,"inconclusive [inhibitor, partial curve, poor fit]",–
CCOC(=O)c1[nH]c2ccc(OC)cc2c1NC(=S)N1CCN(C(=O)OCC)CC1,inactive,–
Cc1sc2nc(SCC(=O)N(CCO)CCO)n(C3CCCCC3)c(=O)c2c1C,"inconclusive [inhibitor, partial curve]",–
